Measured values: PMC4336329 (PLoS ONE, 2015)
In all, about 310,000 compounds went through this assay and about 14,000 (4.5%) showed an effect of 50% or more. Effects have a minus sign here. The list shows a part of the results.

Molecular target: human ether-à-go-go-related gene (hERG) potassium channel (human, UniProt Q12809)
Assay: primary screen, population patch clamp on CHO cells stably expressing hERG
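Further: peak tail current of the secondary pulse compared with the same well before compound.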

Chain of human ether-à-go-go-related gene (hERG) potassium channel (Q12809 whole entry, looked up): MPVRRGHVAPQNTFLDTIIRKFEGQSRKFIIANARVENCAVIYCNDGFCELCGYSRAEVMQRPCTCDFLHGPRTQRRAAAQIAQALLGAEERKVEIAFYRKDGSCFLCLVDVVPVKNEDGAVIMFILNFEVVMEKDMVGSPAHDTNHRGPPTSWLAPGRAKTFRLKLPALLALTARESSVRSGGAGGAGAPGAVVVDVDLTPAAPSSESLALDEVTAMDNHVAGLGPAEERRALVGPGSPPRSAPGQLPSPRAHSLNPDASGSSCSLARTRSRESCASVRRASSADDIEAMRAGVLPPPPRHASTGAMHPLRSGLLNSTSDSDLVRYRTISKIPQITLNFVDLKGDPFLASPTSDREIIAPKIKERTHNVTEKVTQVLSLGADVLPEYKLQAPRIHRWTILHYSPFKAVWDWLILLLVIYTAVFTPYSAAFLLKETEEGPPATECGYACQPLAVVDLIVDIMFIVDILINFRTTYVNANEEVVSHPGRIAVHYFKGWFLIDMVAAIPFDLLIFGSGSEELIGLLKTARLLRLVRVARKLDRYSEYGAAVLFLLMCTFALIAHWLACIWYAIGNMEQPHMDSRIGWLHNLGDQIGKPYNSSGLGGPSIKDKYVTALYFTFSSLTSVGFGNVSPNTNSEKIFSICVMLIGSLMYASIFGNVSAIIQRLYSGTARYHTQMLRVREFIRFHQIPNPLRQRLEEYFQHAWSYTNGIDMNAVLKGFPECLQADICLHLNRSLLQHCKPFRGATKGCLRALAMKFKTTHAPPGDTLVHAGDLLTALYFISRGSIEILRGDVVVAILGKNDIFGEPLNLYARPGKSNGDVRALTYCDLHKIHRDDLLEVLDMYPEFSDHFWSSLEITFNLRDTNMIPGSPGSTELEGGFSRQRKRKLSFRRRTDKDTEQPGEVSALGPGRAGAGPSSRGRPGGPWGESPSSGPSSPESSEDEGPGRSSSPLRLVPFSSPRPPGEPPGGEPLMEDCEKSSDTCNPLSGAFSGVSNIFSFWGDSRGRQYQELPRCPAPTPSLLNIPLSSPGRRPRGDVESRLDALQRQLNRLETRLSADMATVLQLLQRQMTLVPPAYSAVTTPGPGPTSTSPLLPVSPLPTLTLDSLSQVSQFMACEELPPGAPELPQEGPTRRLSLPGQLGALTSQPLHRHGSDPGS

| SMILES | hERG current change (%, negative = inhibition) at 10uM [%] |
| --- | --- |
| CCc1nnc(SCC(=O)NCCC2=CCCCC2)nc1CC | -7.09 |
| CC(C)(C)CC(=O)NCCc1csc(-c2ccccc2)n1 | -7.63 |
| Cc1onc(-c2ccccc2)c1C(=O)OCC(=O)Nc1cc(S(=O)(=O)N2CCOCC2)ccc1Cl | 8.31 |
| CCCCCN(C(=O)CN(C)Cc1ccc(OC)cc1OC)c1c(N)n(CCCC)c(=O)[nH]c1=O | 4.94 |
| COc1ccc(/C=C/c2c(-c3cccc(C)c3)oc3ccc(-c4ccc5c(c4)OCO5)cc23)cc1 | 4.32 |
| Cc1cccc(-c2noc(CN(C(C)C)S(=O)(=O)c3ccc(F)cc3)n2)c1 | 5.51 |
| COc1ccc(CCNC(=O)c2c(Cl)ccc(Cl)c2OC)cc1OC | -8.6 |
| COc1ccc(NC(=O)c2ccc(C(=O)c3ccccc3)o2)cc1 | 11.2 |
| CCN(CC)C(=O)CN(c1cc(Cl)ccc1OC)S(=O)(=O)c1ccc(C)c([N+](=O)[O-])c1 | 18.7 |
| CCC(C)Nc1ccc(NC(C)CC)cc1 (stereo not drawn) | -19.8 |
| CC(C)(C)c1ccc(S(=O)(=O)N2CCN(CCC#N)CC2)cc1 | 8.07 |
| Cc1nnsc1C(=O)N1CCN(c2cc(C(F)(F)F)ccn2)CC1 | -6.79 |
| O=C(CCCC(=O)OCC(F)(F)C(F)F)Nc1ccc(NC(=O)CCCC(=O)OCC(F)(F)C(F)F)cc1 | 26 |
| O=C(Cn1nc(-c2ccccc2F)ccc1=O)Nc1ccc(S(=O)(=O)N2CCCCCC2)cc1 | 22 |
| COc1ccc(C(=O)/C=C2\Sc3ccccc3N2C)cc1 | 11.1 |
| COc1ccc(C(=O)OCC(=O)Nc2ccc(F)cc2F)cc1OC | 12 |
| Cc1ccc(CNC(=O)c2ccccc2NC(=O)C2=CSCCO2)cc1 | -9.42 |
| Cc1cccc(C(=O)NC2CCN(S(=O)(=O)c3ccccc3)CC2)c1 | 3.41 |
| CCN1C(=O)CSc2ccc(C(=O)NCc3ccccc3OC)cc21 | -12.7 |
| Cc1ccc(NP(=O)(Nc2ccc(C)cc2)Oc2ccccc2)cc1 | -3.29 |
| O=C(O)/C=C\C(=O)O.O=[N+]([O-])c1ccc2nc(N3CCNCC3)ccc2c1 | -14.4 |

| SMILES | hERG current change (%, negative = inhibition) at 10uM [%] |
| --- | --- |
| Nc1ncnc2c1nc(Br)n2[C@@H]1O[C@@H]2COP(=O)([O-])O[C@H]2[C@H]1O.[Na+] | 7.03 |
| Cc1ccc(S(=O)(=O)CCN2CCC(n3cccc3)CC2)cc1 | 2.58 |
| CC(CN1CCN(C)CC1)OC(=O)c1ccc(Cl)cc1.Cl (stereo not drawn) | -19.9 |
| CCN(CC(=O)Nc1ccccc1C(F)(F)F)C(=O)COc1cccc2c1OC(C)(C)C2 | -8.33 |
| CCOC(=O)C1CCN(C(=O)C2CC(=O)N(c3ccc(C)cc3)C2)CC1 (stereo not drawn) | -34.2 |
| O=C(Nc1ccccc1C(F)(F)F)C(O)(c1ccccc1)C1CCCCC1 (stereo not drawn) | 17.4 |
| CCC(CO)Nc1ccc([N+](=O)[O-])c2cccnc12 (stereo not drawn) | -42.7 |
| CCOc1ccc(/C=C2\SC(=O)N(CCNC(=O)CN3C(=O)NC4(CCCC4)C3=O)C2=O)cc1OC | 14.1 |
| CC1(c2ccccc2)NC(=O)N(Cc2ccc([N+](=O)[O-])cc2)C1=O (stereo not drawn) | -31 |
| COC(=O)c1ccccc1NC(=O)Cn1cnc2ccc(S(=O)(=O)N3CCC(C)CC3)cc2c1=O | 7.62 |
| CC(C)OCCCNC(=O)c1cc(-c2cccnc2)nc2ccccc12 | -21.4 |
| O=C(NNC(=O)c1cc(-c2ccncc2)nc2ccccc12)Nc1ccc(F)cc1 | 5.44 |
| O=C(O)c1ccccc1-c1nc(-c2ccccc2)c(-c2ccccc2)[nH]1 | 27.1 |
| CCn1nnnc1SCC(=O)Nc1ccc2c(c1)OCCO2 | 1.1 |
| O=C(Nc1cnc2ccccc2c1)N1CCOCC1 | 6.58 |
| CCOc1ccccc1NC(=O)CSc1nnc(C2CC2)n1CC | 17 |
| CCc1ccc(NC(=O)N(CCCN2CCOCC2)C(C)c2cc3cccc(OC)c3o2)cc1 (stereo not drawn) | -49.7 |
| CCC(C(=O)NC(C)(C)C)N(Cc1cccs1)C(=O)CNS(=O)(=O)c1ccccc1 (stereo not drawn) | -5.88 |
| O=C(NCCC(=O)N(Cc1ccco1)Cc1cccs1)c1ccc(Br)cc1 | -58.7 |
| Cc1cc(=O)oc2c1c(C(F)(F)F)nn2-c1ccccc1 | 14 |
| O=C(O)CCc1nc2cc(C(F)(F)F)ccc2n(Cc2ccccc2)c1=O | 23.8 |

| SMILES | hERG current change (%, negative = inhibition) at 10uM [%] |
| --- | --- |
| C/C(=N\NC(N)=S)C1(C)CC2(CC(C)(C)OC2=O)C(=O)O1 (stereo not drawn) | 6.91 |
| CCCC(=O)Nc1ccccc1-c1nnn(CC(=O)Nc2ccc(OC)cc2)n1 | -7.55 |
| CN(C)CC/C=C1/c2ccccc2CS(=O)(=O)c2ccccc21 | 10.2 |
| O=C(Cc1ccccc1)c1c[nH]c(C(=O)NCCCN2CCOCC2)c1 | -12 |
| Cc1ccc(S(=O)(=O)N(CCCO)CC(O)CON=C2c3ccccc3-c3ccccc32)cc1 (stereo not drawn) | 14.4 |
| O=C(NNC(=O)c1cccc(S(=O)(=O)Nc2ccc(Cl)cc2)c1)c1ccc(=O)[nH]c1 | -4.2 |
| CCc1cc2ccc(C)cc2nc1SCC(=O)N1CCN(C(=O)c2ccco2)CC1 | -56 |
| CCOc1ccc(NC(=O)CNC(=O)c2ccc(OC)cc2)cc1 | 0.119 |
| Cc1ccc(NCc2nnc(SCC(=O)NNC(=O)Cc3ccccc3)n2C)cc1 | 14.2 |
| C=CCN1C(=O)C(Cc2ccc(C)cc2)S/C1=N/N=C/c1ccco1 (stereo not drawn) | 10 |
| CC(NC(=O)CSc1nc2ccccc2c(=O)[nH]1)c1ccccc1 (stereo not drawn) | -3.63 |
| Cc1ccc(Nc2nc(N)nc(CSc3ncccn3)n2)cc1 | -18.7 |
| CC(NC(=O)C1CCN(C(=O)Nc2ccccc2)CC1)c1ccccc1 (stereo not drawn) | -6.12 |
| O=C(CCn1nnc(-c2cccs2)n1)NC1CCCCC1 | 2.79 |
| CCOc1ccc(Nc2ncnc3ccc([N+](=O)[O-])cc23)cc1 | 1.23 |
| COc1cc(-c2nnc(SCC3(c4ccccc4)OCCO3)o2)cc(OC)c1OC | -9.14 |
| CCNC(=O)C(Cc1ccccc1)NC(=O)OCc1ccccc1 (stereo not drawn) | 8.4 |
| Clc1ccccc1-c1ccc(CN2CCN(c3ccccc3)CC2)o1 | 0.453 |
| CCS(=O)(=O)N1Cc2ccccc2CC1C(=O)Nc1ccc(F)c(F)c1 (stereo not drawn) | -7.59 |
| CCC(C)NC(=O)Nc1ccc2c(c1)N(C)C(=O)c1ccccc1S2 (stereo not drawn) | -12.2 |
| CCCCC(=O)OCC(=O)Nc1ccc(OC(F)F)cc1 | -21.2 |

| SMILES | hERG current change (%, negative = inhibition) at 10uM [%] |
| --- | --- |
| C[C@@H](C(=O)NCc1ccc(S(C)(=O)=O)cc1)[C@H]1C[C@]1(C)[C@H](NC(=O)OCc1ccccc1)c1ccccc1 | -35.4 |
| CCN(CC)c1ncnc2c1ncn2Cc1c(Cl)cccc1Cl | 2.93 |
| Nc1c(Cl)cc(C2=NCCn3nc4cc(C(F)(F)F)ccc4c32)cc1Cl | 6.72 |
| COc1ccccc1C(=O)Nc1nnc(SCC(=O)NCc2ccco2)s1 | 4.4 |
| Cc1ccc(S(=O)(=O)N2CCCN(S(=O)(=O)c3ccc(C)c(C)c3)CC2)cc1C | 3.64 |
| CCOC(=O)C1CCN(C(=O)COC(=O)CNC(=O)c2ccc(OC)cc2)CC1 | 5.52 |
| O=C(CSc1cccc[n+]1[O-])c1ccc(-c2ccccc2)cc1 | -3.84 |
| O=S(=O)(NCCOc1ccccc1)c1ccc2ccccc2c1 | 14 |
| C=C1[C@@H](OC(C)=O)[C@]23C[C@@H]1[C@@H](OC(C)=O)CC2[C@]12C4C[C@H]3[C@H]1N(CC)C[C@]4(C)CC[C@@H]2O (stereo partly drawn) | -40.6 |
| Cc1ccc([N+](=O)[O-])c(OCCCN2CCC(Cc3ccccc3)CC2)c1.O=C(O)C(=O)O | -89.6 |
| FC(F)(F)c1ccccc1CCN1CCNCC1 | 20.9 |
| Cc1nnc(SCC(=O)NCc2ccccc2)[nH]c1=O | -7.09 |
| NC(=O)c1c(NC(=O)C(=O)N2CCOCC2)sc2c1CCCC2 | 14.3 |
| Cc1ccc(C)c(S(=O)(=O)NCc2ccc(C(=O)N3CCCCC3C)cc2)c1 (stereo not drawn) | -6.16 |
| CN(c1cccc(NC(=O)COc2ccc(Cl)cc2Cl)c1)S(C)(=O)=O | 0.0208 |
| Cc1ccc(CNC(=O)c2ccc3c(c2)NC(=O)CS3)cc1 | -12.2 |
| N#C/C(=C\c1cn(CCOc2ccccc2)c2ccccc12)C(=O)NCc1cccs1 | 0.688 |
| CS(=O)(=O)c1ccc(Oc2ccc(-c3nnco3)cc2)c([N+](=O)[O-])c1 | -7.35 |
| CC(C)(C)C(=O)NCCc1nc2ccccc2n1CC(=O)c1ccc(Cl)cc1 | -33.2 |
| Cc1ccc(NC(NC(=O)c2ccccn2)C(Cl)(Cl)Cl)cc1 (stereo not drawn) | -26.2 |
| CCN(CC)S(=O)(=O)c1cc(C(=O)n2cccn2)c(Cl)cc1Cl | -2.45 |
